# Several values for one entry are separate records, joined by “and”; a condition that tells them apart may be missing. Equal entries are not always repeated. In all, about 420,000 compounds went through this assay and about 64,000 (15%) were called active. Inconclusive results, whose numbers are uncertain, are shown with a selection of clear calls. Calls follow the shape of the dose curve; as a rule, active = well fitted inhibition curve with a large enough effect; inconclusive = small, poorly fitted or top-dose-only effect; inactive = flat fitted curve, though single readings scatter. Potencies beside an inconclusive call are fits to weak or partial responses and may not hold up. A structure can be active in one record and inactive in another.
# Test: qHTS for Inhibitors of human tyrosyl-DNA phosphodiesterase 1 (TDP1): qHTS in cells in absence of CPT; also: nearly all actives have a fitted effect of over 55% in size
# Settings: DT40 Tdp1-/- hTDP1 cells, no CPT, ATP luminescence, 48 h; activity change, negative = growth inhibition: at 46.2 µM (top of the series)
# In short: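 Chicken DT40 Tdp1-/- cells stably complemented with human TDP1 were seeded at 400 cells/well with DMSO in place of 20 nM camptothecin. After compound pinning, cells grew at least 48 hr at 37 °C; viability read by CellTiter-Glo luminescence.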
# % is scaled to controls: 0 for no effect and ±100 for the full control effect; potency is read from the fitted curve at half-maximal effect; tags tell the direction and shape of the fitted curve.
SMILES,Potency,"activity change, negative = growth inhibition"
O=C(CSc1nnc(-c2ccccc2)n1-c1ccccc1)c1cccs1,active: 11.6 µM,–
CSc1cnn(Cc2ccccc2)c(=O)c1SCc1ccccc1,"inconclusive: 29.1 µM [inhibitor, partial curve, poor fit]",–
CCOC(=O)Cc1csc(NC(=O)c2cc3c(s2)CCCC3)n1,–,inconclusive: -31.7% [inhibitor]
COc1cccc(-c2cnc3c(NC(C)=O)cc(-c4ccncc4)cn23)c1,active: 16.4 µM,–
COc1cccc(NC(=O)CCC2CCN(C(=O)c3c(C)noc3C)CC2)c1,"inconclusive: 29.1 µM [inhibitor, single point]",–
COC(=O)c1ccccc1NC(=O)c1cc2ncc(Br)cn2n1,"inconclusive: 1.16 µM [inhibitor, full curve, poor fit]",–
O=C(NCCc1ccccc1Cl)c1ccc2c(c1)nc1n2CCOC1,–,inactive: -17.6%
O=C(Nc1ccc2c(c1)oc1ccccc12)N1CCOCC1,"inconclusive: 29.1 µM [inhibitor, single point]",–
CN(C)S(=O)(=O)n1cc(/C=C(\NC(=O)c2ccccc2Cl)C(=O)NCCCn2ccnc2)c2ccccc21,active: 29.1 µM,–
CC1(C)[C@@H](OC(=O)CCC(=O)O)CC[C@]2(C)[C@H]3C(=O)C=C4[C@@H]5C[C@@](C)(C(=O)O)CC[C@]5(C)CC[C@@]4(C)[C@]3(C)CC[C@@H]12,–,inactive: 1.22% [at 21.1 µM]
CCc1ccc(C2c3[nH]c4ccccc4c3CCN2C(=O)CN2CCN(CC)CC2)cc1 (centres undefined),active: 25.9 µM,–
CCN(CC)CCNC(=O)c1nn(-c2ccc(OC)c(Cl)c2)c(=O)c2c1c1ccccc1n2C,–,inactive: 2.76%
COc1cccc(-c2cc(NCc3cccs3)ncn2)c1,"inconclusive: 7.31 µM [inhibitor, partial curve, poor fit]",–
O=S1(=O)C=C[C@@H](COCc2ccccc2)N1Cc1ccc(Br)cc1,"inconclusive: 18.4 µM [inhibitor, single point]",–
O=c1oc(CCCO)cc2ccccc12,–,inactive: -4.29%
CC(=O)c1c(N2CCCC2)nc(=S)n(-c2ccccc2)c1C,active: 8.2 µM,–
COc1ccc(C(=O)C2CCN(C(=S)NCCc3ccccc3)CC2)cc1,–,inactive: -22.4%
CCC1=C(OC(=O)N(CC)CC)N2C(=O)OC(=NCCc3c[nH]c4ccccc34)[C@]2(C)[C@H]2C1=CC[C@H]1C(=O)N(C)C(=O)[C@H]12,–,inactive: -21.2%
COc1ncc2nc(-c3ccc(Cl)cc3)c(=O)n(C[C@H]3CCCO3)c2n1,–,inactive: -6.1%
CCc1nn(C(C)C(=O)N2CCN(c3cccc(C(F)(F)F)c3)CC2)c(=O)c2cc3occc3n12 (centres undefined),active: 23.1 µM,–
CC(CN(C)C)CN1c2ccccc2Sc2ccccc21 (centres undefined),active: 18.4 µM,–
CCN(CC)c1ccc(NC(=O)CCNS(=O)(=O)c2ccc3c(c2)CCC(=O)N3)c(C)c1,active: 16.4 µM,–
O=C(NN1CCCCC1)c1cnn2c(C(F)F)cc(-c3ccccc3)nc12,"inconclusive: 25.9 µM [inhibitor, single point]",–
CCOC(=O)C1=C(CC)Nc2ccccc2N=C1NC(=O)c1ccc(S(=O)(=O)N2CCOCC2)cc1,"inconclusive: 18.4 µM [inhibitor, partial curve]",–
Cc1cccc(CSCc2ccc(C(=O)O)o2)c1,"inconclusive: 29.1 µM [inhibitor, single point]",–

SMILES,Potency,"activity change, negative = growth inhibition"
CC1CCN(C(=O)COc2coc(CN3CCc4ccccc43)cc2=O)CC1,–,inactive: -7.37%
COc1ccc(N(C(=O)Cn2nnc(-c3ccc(C)o3)n2)C(C(=O)NC2CCCC2)c2ccncc2)cc1 (centres undefined),"inconclusive: 32.6 µM [inhibitor, single point]",–
O=C(C1CC(=O)N(C2CCCC2)C1)N1CCN(c2cccc(C(F)(F)F)c2)CC1 (centres undefined),active: 11.6 µM,–
CN1CCC(Oc2ccc(Sc3ccccc3)cc2)CC1,active: 23.1 µM,–
Cc1ccc(N2C(=O)CC(Sc3nc4ccccc4o3)C2=O)cc1Cl (centres undefined),active: 3.26 µM,–
COc1cccc(OCc2cc(C(=O)NCc3ccc4c(c3)OCO4)no2)c1,–,inconclusive: -30.3% [inhibitor]
Cc1ccc(NC(=O)c2sc(N)nc2C)cc1,–,inactive: 11.1%
COc1ccc(C2CC(c3ccccc3)=NN2S(=O)(=O)c2ccccc2)c(OC)c1 (centres undefined),active: 20.6 µM,–
O=C(Nc1nc(-c2ccccc2)cs1)c1cccc([N+](=O)[O-])c1,"inconclusive: 29.1 µM [inhibitor, single point]",–
CCCn1c(SCc2nc3ccccc3s2)n[nH]c1=O,–,inactive: 8.27%
COc1ccc(N2CC(C(=O)NCc3n[nH]c(=O)c4ccccc34)CC2=O)cc1 (centres undefined),–,inactive: -12%
CCCCN(C(=O)Cn1ncc(Cl)c(Cl)c1=O)c1c(N)n(CC(C)C)c(=O)[nH]c1=O,"inconclusive: 29.1 µM [inhibitor, single point]",–
Cc1ccc(Cn2cc(C(=O)c3ccc(F)cc3)c(=O)c3cc4c(cc32)OCCO4)cc1,"inconclusive: 20.6 µM [inhibitor, single point] and inconclusive: 29.1 µM [inhibitor, single point]",–
CCc1ccccc1NC(=O)CSCc1cnn(-c2ccccc2)c1-n1cccc1,"inconclusive: 23.1 µM [inhibitor, single point]",–
COC(=O)c1ccccc1NS(=O)(=O)c1ccc2c3c(cccc13)C(=O)N2,"inconclusive: 23.1 µM [inhibitor, single point]",–
Cc1nc2ccccc2nc1CC(O)(c1ccccc1)c1ccccc1,"inconclusive: 29.1 µM [inhibitor, partial curve]",–
CCC(C(=O)Nc1cc(C)on1)c1ccccc1 (centres undefined),–,inactive: -7.75%
CCOc1ccccc1CNCCNC(=O)c1nonc1N,active: 25.9 µM,–
O=C(CN1CCCCC1)Nc1nc(-c2ccccc2)cs1,–,inconclusive: -32.2% [inhibitor]
N#Cc1ccccc1NC(=O)c1ccc2c(Cl)c3c(nc2c1)CCCC3,"inconclusive: 18.4 µM [inhibitor, single point]",–
CCN1CCN(c2sc(S(C)(=O)=O)nc2S(=O)(=O)c2ccc(C)cc2)CC1,active: 14.6 µM,–
CSc1ccc(CN2CCN(S(=O)(=O)Cc3ccccc3)CC2)cc1,"inconclusive: 20.6 µM [inhibitor, single point]",–
Cc1nn2c(N)c(-c3ccccc3)cnc2c1-c1ccc(Cl)cc1,"inconclusive: 18.4 µM [inhibitor, single point]",–
Nc1ccc(N2CCOCC2)c(S(=O)(=O)Nc2cc(Cl)ccc2Cl)c1,–,inactive: 1.32%
Cc1ccc(S(=O)(=O)N2CCC(C(=O)NNC(=O)c3ccncc3)CC2)cc1,–,inactive: -3.42%

SMILES,Potency,"activity change, negative = growth inhibition"
Cc1cc(C)n(-c2nnc(C)n2NC(=O)c2cccc(Cl)c2)n1,–,inactive: -4.6%
Cc1cccc(OCCCC(=O)NC(C)C)c1,active: 23.1 µM,–
Cc1ccc(C2=C(O)C(=O)C(c3ccc(C)cc3)=C(O)C2=O)cc1,active: 11.6 µM,–
Cc1ccc(NC(=O)c2ncn(CCCN3CCN(c4ccccn4)CC3)n2)cc1C,active: 25.9 µM,–
Cc1nn(-c2ccc(Cl)cc2)c(=O)c2ccccc12,"inconclusive: 32.6 µM [inhibitor, single point]",–
Cc1ccc2c(c1)c1c(c(=O)n(-c3ccccc3C)c(=O)n1CC(=O)N1CCCC1)n2C,"inconclusive: 20.6 µM [inhibitor, single point]",–
COc1cc(OC)c(NC(=O)CC(c2cccs2)N2Cc3ccccc3C2=O)cc1Cl (centres undefined),active: 18.4 µM,–
CCS(=O)(=O)Nc1c(C(=O)OC)[nH]c2ccccc12,–,inactive: 2.24%
CCCc1nnc(NC(=O)CCC(=O)N2CCN(Cc3ccc(Cl)cc3)CC2)s1,"inconclusive: 13 µM [inhibitor, partial curve]",–
CCOc1ccc(C(=O)OCC(=O)NC2CCCCCCC2)cc1,"inconclusive: 29.1 µM [inhibitor, single point]",–
COc1cc2c(cc1OC)C(COc1ccc(F)cc1)N(C(=O)c1ccco1)CC2 (centres undefined),"inconclusive: 29.1 µM [inhibitor, single point]",–
CC(C)CNS(=O)(=O)c1ccc(CCC(=O)NC2CCCCC2)cc1,–,inactive: -18.9%
CCOC(=O)c1c(C)c(C(=O)Nc2ccc3c(c2)OCO3)c(C)n1C,–,inactive: -4.07%
Cc1cc(=O)oc2cc(OCC(=O)NC3CCCC3)ccc12,–,inactive: -3.68%
C=CCSc1nnc(-c2c[nH]c3ccccc23)n1CC,"inconclusive: 23.1 µM [inhibitor, single point]",–
Cc1nc(-c2ccc(S(=O)(=O)Nc3ccc(C#N)cc3)cc2)co1,"inconclusive: 29.1 µM [inhibitor, single point]",–
COC(=O)c1cccc(-c2cc(Cl)c3c(c2)CC(CNC(=O)c2cccnc2)O3)c1 (centres undefined),"inconclusive: 16.4 µM [inhibitor, single point]",–
COC(=O)c1ccc(NC(=O)CSc2nc(C)cc(C)c2C(=O)Nc2ccccc2)cc1,"inconclusive: 29.1 µM [inhibitor, single point]",–
Cc1cc(NC(=O)CC#N)n(-c2nc3ccccc3[nH]2)n1,"inconclusive: 20.6 µM [inhibitor, single point]",–
Cc1ccc(-n2c(SCC(=O)N3CCCc4ccccc43)nnc2-c2cccnc2)c(C)c1,active: 23.1 µM,–
O=C(N/N=C/c1ccc[nH]1)c1cccc(Br)c1,"inconclusive: 25.9 µM [inhibitor, single point]",–
O=c1oc2ccc(Cl)cc2cc1-c1nnc(Nc2cccc(C(F)(F)F)c2)s1,active: 2.59 µM,–
Cn1c(NCCCN2CCOCC2)nc2c1c(=O)n(Cc1ccc(Cl)c(Cl)c1)c(=O)n2C,"inconclusive: 25.9 µM [inhibitor, single point]",–
CCOC(=O)c1ccc2[nH]c3c(c2c1)CCCC3C(=O)OCC (centres undefined),–,inactive: -26.1%
